# Assay results taken from article PMC12136788.
# The list shows a part of the results.
# T1: UNK ZnF1-3 (human, UniProt Q9C0B0 31-174)
# T1 sequence: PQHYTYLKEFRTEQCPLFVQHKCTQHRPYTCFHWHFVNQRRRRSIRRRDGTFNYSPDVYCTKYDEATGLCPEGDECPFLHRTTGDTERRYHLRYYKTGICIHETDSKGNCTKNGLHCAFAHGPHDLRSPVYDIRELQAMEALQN
# B1: chr10:131964826:131964827:+_ENSG00000108010_ENST00000331244|hu_hu|motif|central (ssRNA)
# RNA: GGGAGUUCUACAGUCCGACGAUCACUGGAAUAGGCUUUGAGUCCCUGUCGAACCUCUUCAUCUGAGAAGAUAUCAAAACUGCGGAACUGAAUAUUAUGUUUGUGAAGAAUUUCCACCAUCUGCUUGCUGAAACCACAGCGUGGCAACAGAGGAUUGAGCAUCA
# B2: chr22:32879901:32879902:+_ENSG00000100225_ENST00000397426|hu_mus|hu_hu_hu_mus_False|1_108 (ssRNA)
# RNA: GGGAGUUCUACAGUCCGACGAUCCUCUGCCAUAUGCAUGGCAUCCUGAAUUGACUCAGCUUCAACAUUUUGACUAGGCCCUUCCAUACUGUCAUCAGUCCAGGCAUCAAAUGGGGUGGCCUGUCCUUGGGAUGAAUCACUUGGCAACAGAGGAUUGAGCAUCA
# B3: chr4:99997923:99997924:-_ENSG00000197894_ENST00000296412|hu_hu|motif|central (ssRNA)
# RNA: GGGAGUUCUACAGUCCGACGAUCAGCACCAUAACCGGUUGAAAUGCCACAACCUAGAAGGCAGACUUUAUCCAAAGGUGCGGAAGGAUCUAUUUUAGCAACAGAGAUAUCAGCCACAACUGUGUAUUCAGAAAAUGUGCUGGUCAACAGAGGAUUGAGCAUCA
# B4: chr8:104075188:104075189:+_ENSG00000155097_ENST00000518738|hu_mus|FALSE|FALSE (ssRNA)
# RNA: GGGAGUUCUACAGUCCGACGAUCUUUUCUAAACAAGGUGACGUUACAAAGAUAACUGUCUUGGUCCUCUGAAAGAACAUUGCUUGACCUUGGUACUACCAUUUCUGCGAGCGUUUCAUACUGCUUAAUCCAGUCAUUGUGGUUCAACAGAGGAUUGAGCAUCA
# B5: 54184345_54186628_411_CDS_ENSMUSG00000021474_ENSMUST00000021930|mouse|control|control (ssRNA)
# RNA: GGGAGUUCUACAGUCCGACGAUCGUUUAUCCACUGCCAGAAAAGCACAGCCGGUGUGGUCCGGUAGAAGGUCAUCAUGCAGCCUGUGAUGGUCAUGUUCAUCGGGACCUGAGCUGACAUUCUUCCUAUCAGAGUCAUCUUUUCCAACAGAGGAUUGAGCAUCA
# B6: chr2:66667028:66667029:+_ENSG00000143995_ENST00000407092|perfect_dup|motif|central (ssRNA)
# RNA: GGGAGUUCUACAGUCCGACGAUCCUCUGACGAGCAGACGUCCCCGCCCGCCACCCCCGGCUCGCGGGGGGUACAAGUAGCGGAUUCACAUUUCUCAAAAAUCAGUGCUAAGAGAGGGAAGAGGGGGUGUCCAUAAAUGGCAUCCAACAGAGGAUUGAGCAUCA
# B7: chr17:57752078:57752079:+_ENSG00000141367_ENST00000269122|hu_hu|FALSE|FALSE (ssRNA)
# RNA: GGGAGUUCUACAGUCCGACGAUCAAUCAAGUUUUUUAUGACAUCUUCAGAACAGUCAACAUCAAGUAAUCCUCCAAUAACUACAGGAAGUCGACUUGGAUUCACCUUCUGUACAUAUAUCUCUAUAUACUUUUGAAGAUUAUUCAACAGAGGAUUGAGCAUCA
# B8: 155556619_155559187_3351_CDS_ENSG00000184863_ENST00000401878|human|control|control (ssRNA)
# RNA: GGGAGUUCUACAGUCCGACGAUCUCCUCUGCCUCGUCCGUGCAUGAUGGCCUUCUUCGCCGGGUGAAUUCCUUGGAUGCUUUUGAUCCCUGGAGGGACAGGCGAGUGUGCGUGGGGCCCCGCUGGCAGAUGUGGGGGCUGCUGCAACAGAGGAUUGAGCAUCA
# B9: chr11:86991360:86991361:+_ENSMUSG00000018548_ENSMUST00000041282|mus_hu|FALSE|FALSE (ssRNA)
# RNA: GGGAGUUCUACAGUCCGACGAUCUUCUCGAAUGAUAUUUUUUGUAGGAUCAUUACAGGACUGGUGAACCAUCUCUACACGAUAUUCAUAUUUAGAAGUUUCAGGCAAGCCAGCUGAGAGCUCCAGAAACACAGAUAAGUAGUACAACAGAGGAUUGAGCAUCA
# B10: chr11:87793186:87793187:-_ENSMUSG00000020483_ENSMUST00000020775|mus_mus|FALSE|FALSE (ssRNA)
# RNA: GGGAGUUCUACAGUCCGACGAUCCCAGAGUCUGGGAGGGCAGGGAAACACAGAUCUGGACAUUCAUAAGAAAAAUAAAACCUAAAAUCAAACAUUCAAUCCUGUACCCAAUAACGGUUUGAACAGGGAACUCAGUCCCCACCACAACAGAGGAUUGAGCAUCA
# B11: chr14:78183846:78183847:+_ENSG00000119705_ENST00000557342|hu_hu|hu_hu_hu_mus_False|48_68 (ssRNA)
# RNA: GGGAGUUCUACAGUCCGACGAUCUCUCAGAAAUCUUUCUUCAUCAGAUGUUUGAGCUCCGUGCAAAAGUUUUGGCCUUUGAGCUUGAACCUGGACCUAUGGGAGGGAAAGCACUGUCAGAAAAGGUAAUUUUUUUUUUAAAGACAACAGAGGAUUGAGCAUCA
# B12: chr6:40197388:40197389:+_ENSMUSG00000057716_ENSMUST00000061740|mus_mus|mus_mus_mus_hu_False|38_68 (ssRNA)
# RNA: GGGAGUUCUACAGUCCGACGAUCGAGACACUGGGGUGGAUUUAUUCCACCUCUGUUUGGGUGCUAGUAAGAUAGAUUGUUAUUUUGGGAUUCAUGGCCUUGAAGAUCAAGAGGGAAAGGAAGAGGAUGGAAAGAGUCAAGAGUCAACAGAGGAUUGAGCAUCA
# B13: chr17:4210377:4210378:-_ENSG00000132388_ENST00000396981|hu_mus|motif|central (ssRNA)
# RNA: GGGAGUUCUACAGUCCGACGAUCAAGUGUAUCUGGAGGACCAAUAAUAAGGACUUCCCAACGAUAGAGAUCAUUGUCGUCGGUUAAACCUGCUGAAAAGCCUUCCACUGGAUUUUUGUUGAGUUCUGCCAGCUGUCUUCGCAGCAACAGAGGAUUGAGCAUCA
# B14: chr5:144009550:144009551:+_ENSMUSG00000029587_ENSMUST00000032591|mus_hu|FALSE|FALSE (ssRNA)
# RNA: GGGAGUUCUACAGUCCGACGAUCGUCAAAAUUUACAGAAAAUAAAUCUCUAUAUCAACAGCUUAAAAUAAAUGACUUACCUAAAGUCCACUUCUGAACUGCAUAACUCCUAUAAAGGUUUCAGUCUGUACCAAUUAGAAUGUCCAACAGAGGAUUGAGCAUCA
# B15: chr17:87835246:87835247:-_ENSMUSG00000036438_ENSMUST00000040440|mus_hu|FALSE|FALSE (ssRNA)
# RNA: GGGAGUUCUACAGUCCGACGAUCGAGAUCUCAUUACAGUUCCCAAUUCCUUUGUUGUUAUAGUUCCAUCACCAUCUUUGUCAAAUAGUGAAAAAGCUUCUUUGAAUUCUGCAAUCUGCUCUUCAGUCAGUUGGUCAGCCAUGCCAACAGAGGAUUGAGCAUCA
# B16: chr2:47387792:47387793:-_ENSG00000143933_ENST00000272298|hu_hu|hu_hu_hu_mus_True|28_28 (ssRNA)
# RNA: GGGAGUUCUACAGUCCGACGAUCUAAGGACAAUGACAGUAAGAUAAGGGAAGAAAACAUGGAGGAAUGAAGUCCUAAUUACUAUACAUGCAUAUUUUUUGACAGUAAGGGAGAAACACCUUUUACAGAUAAGUUACAAACAAACAACAGAGGAUUGAGCAUCA
# B17: chr19:8913615:8913616:-_ENSMUSG00000071658_ENSMUST00000096259|mus_hu|mus_mus_mus_hu_False|8_8 (ssRNA)
# RNA: GGGAGUUCUACAGUCCGACGAUCAGGGUACCAAAACCUUCUGCCUGAAAUGGGUGCCCCACCCAGUAGGGAGUUGCAGCUGAAAGUAUCUGAUGCAGAAGCAGUGACUAUACGAAAGGAGGCCCCUGAUGCUCAGAAGGCCAGCAACAGAGGAUUGAGCAUCA
# B18: chr15:81824118:81824119:-_ENSMUSG00000022472_ENSMUST00000152227|mus_hu|FALSE|FALSE (ssRNA)
# RNA: GGGAGUUCUACAGUCCGACGAUCAGGUUCAUGUGAAGAGAGGGAAUCUGAAAGUCUCUCUGGAUUAGAGACUCCCAGACUGUUCCCUGCCUAUAACCUCCUAGCAGCAAGUCAUUAGGAAAAUGCCCACUCAUGCCCCAACCUCAACAGAGGAUUGAGCAUCA
# B19: chr1:60041781:60041782:+_ENSMUSG00000041040_ENSMUST00000036540|mus_hu|mus_mus_mus_hu_False|8_8 (ssRNA)
# RNA: GGGAGUUCUACAGUCCGACGAUCAAGUUUACAAUAGUAAAGUAAAUGCAGUAGUGGCAAAUUUUCUUUUAUUUUCCUUCACAAAAGAAAAUCUUUAUAACCCAGUCCUAGUCUUGGACAUAGUGAAUCUCCAUGGGUCUGACUCAACAGAGGAUUGAGCAUCA
# B20: chr12:493273:493274:-_ENSG00000073614_ENST00000399788|hu_mus|hu_hu_hu_mus_False|58_58 (ssRNA)
# RNA: GGGAGUUCUACAGUCCGACGAUCUUUUCUCUCCACCACAGGGAUCUUCAAUGUAGAUCCUUGAAGUUCCCAAAAUUUUGCUAGUUGAUCCAAGAAGUCCAAUCUUACUCUAGUCAUUGCCUCAAGUUCAUUCAGGCGCUGGACCAACAGAGGAUUGAGCAUCA
# B21: chr5:108714765:108714766:-_ENSG00000198961_ENST00000361557|hu_mus|motif|central (ssRNA)
# RNA: GGGAGUUCUACAGUCCGACGAUCACAAACUGCUGGAGUAUGCUCUGUCUCAGUGCGAUUAUGAAGGUUUGUAUUGCUUUCGGAGGUCUCCCUGACUUCCUCACUAUGACAUACUGUGGCAAUGGAUGGACUGCUCUCAGUGCUCAACAGAGGAUUGAGCAUCA
# B22: chr11:94923035:94923036:-_ENSG00000149212_ENST00000536441|hu_hu|FALSE|FALSE (ssRNA)
# RNA: GGGAGUUCUACAGUCCGACGAUCUCCAGUUUUGACAAGUUUCUGAAUGUGCUCUUUUGUGAUCAGCCAAGGUCGAUGUGCUAGCAGCUUAUUAAUUUCAUUAAGAUUUUUCAGUCUUUGUGGCACAUAUUCCAAACCAUUCAACAACAGAGGAUUGAGCAUCA
# Target: T1, UNK ZnF1-3
# Test: nsRBNS (natural sequence RNA bind-n-seq); RBNS binding buffer (assumed for nsRBNS): 25 mM Tris pH 7.5, 150 mM KCl, 3 mM MgCl2, 0.01% Triton X-100, 500 ug/ml BSA, 20 U/ml SUPERase-In, 4 C; UNK is unkempt and MSI1 is Musashi-1; names of the RNAs are library labels; protein concentration not given here; high values mean tight binding
row,Binder,binding signal
1,B1,0.832 enrichment R
2,B2,0.852 enrichment R
3,B3,2.14 enrichment R
4,B4,0.69 enrichment R
5,B5,0.825 enrichment R
6,B6,1.21 enrichment R
7,B7,0.368 enrichment R
8,B8,0.967 enrichment R
9,B9,1.18 enrichment R
10,B10,1.62 enrichment R
11,B11,1.53 enrichment R
12,B12,1.7 enrichment R
13,B13,0.777 enrichment R
14,B14,0.576 enrichment R
15,B15,0.672 enrichment R
16,B16,1.9 enrichment R
17,B17,0.876 enrichment R
18,B18,0.835 enrichment R
19,B19,0.734 enrichment R
20,B20,0.951 enrichment R
21,B21,0.748 enrichment R
22,B22,1.24 enrichment R
